From the supplement of paper PMC10126150
Values marked as one replicate rest on one cluster of the flow cell; about a third of the high ones do not repeat.

These sequences were tested on ATP (assay: switch fluorescence ratio, 500 uM ATP over buffer (Cy3 cluster intensity, sum of 5 cycles each) (fold (ratio)); higher = stronger signal-on switching upon ATP binding; sequences stand for … in TCGTCGGCAGCGTCAGATGTGTATAAGAGACAGTTTTTTTTTTTTTTTTTTTTTTTTT…TC). Conditions: aptamer strand: ATP DNA aptamer (quencher-CACCTGGGGGAGTATTGCGGAGGAAGG + anchor), 100 nM annealed; ATP concentration: 500 uM; one replicate.
How it was run: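 Between each of five buffer/ATP cycles, the flow-cell was stripped with NaOH and re-annealed. Each cycle imaged Cy3-labelled switching-strand clusters, annealed to 100 nM quencher-labelled ATP aptamer on a modified Illumina MiSeq flow-cell, first in selection buffer and then after 15 min with 500 uM ATP at 22 °C. The fluorescence ratio is summed target-cycle over summed buffer-cycle Cy3 intensity per cluster, averaged per switch-domain sequence, with clusters outside 100-1000 RFU excluded.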
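Further: ATP exposure 15 min at 22 °C before imaging.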

Row | Sequence | switch fluorescence ratio
1 | TCACCCGCCG | 1.03
2 | TCACCCGGGT | 1.02
3 | TCACCGACAA | 3.04
4 | TCACCGAGTA | 1.02
5 | TCACCTTAGT | 1
6 | TCACGAAGGC | 1.03
7 | TCACGCCCAG | 1.1
8 | TCACGCGTGC | 0.959
9 | TCACGGGCAT | 1.08
10 | TCACGGGGAG | 1
11 | TCACTGGGGG | 0.983
12 | TCACTTCGTT | 1
13 | TCACTTTAAA | 1.03
14 | TCAGAACCGG | 0.985
15 | TCAGAAGGTT | 1.13
16 | TCAGACAGGT | 1.01
17 | TCAGACCAG | 0.975
18 | TCAGACGTAA | 3.58
19 | TCAGACTAAT | 1.02
20 | TCAGACTTTA | 1.03
21 | TCAGCATATA | 1.53
22 | TCAGCATGGA | 1.05
23 | TCAGCATTA | 1.22
24 | TCAGCCTTTT | 0.974
25 | TCAGGAACCA | 1

Row | Sequence | switch fluorescence ratio
26 | TCAGGAAGTA | 1.01
27 | TCAGGACCAT | 1.01
28 | TCAGGAGATT | 1.01
29 | TCAGGATCAG | 0.971
30 | TCAGGGAAA | 0.968
31 | TCAGGGCGGT | 0.919
32 | TCAGGGTACG | 0.99
33 | TCAGGGTCTG | 0.983
34 | TCAGGTACAC | 1.01
35 | TCAGGTCAGG | 1.06
36 | TCAGGTGGTA | 1.14
37 | TCAGGTGTGG | 1.11
38 | TCAGTAATTA | 1.03
39 | TCAGTACGCC | 1.05
40 | TCAGTACTCT | 1.03
41 | TCAGTGGATC | 0.994
42 | TCAGTGTAGA | 1.01
43 | TCAGTGTGGA | 1.04
44 | TCAGTTATAT | 1
45 | TCATAAAAGT | 1.04
46 | TCATAAACGG | 1
47 | TCATAACAGT | 0.994
48 | TCATAACGAG | 1.01
49 | TCATAATCAT | 1.02
50 | TCATACAGCA | 1.09

Row | Sequence | switch fluorescence ratio
51 | TCATACGGCC | 1.06
52 | TCATAGACAG | 1.01
53 | TCATAGTAAA | 1.01
54 | TCATAGTTCG | 0.993
55 | TCATCAAAAG | 1.05
56 | TCATCGACA | 1.01
57 | TCATCGCTTA | 1.14
58 | TCATCGGCGG | 0.976
59 | TCATCTCGTT | 1.04
60 | TCATGAGCT | 1.03
61 | TCATGATCAT | 0.994
62 | TCATGCGTCT | 0.917
63 | TCATGGTTAC | 1.06
64 | TCATGTAAAG | 0.97
65 | TCATGTTAGA | 1.01
66 | TCATTAAAA | 0.98
67 | TCATTAAAGC | 0.996
68 | TCATTACCAA | 0.988
69 | TCATTACCAG | 1.02
70 | TCATTACCG | 1.01
71 | TCATTACTAT | 0.987
72 | TCATTATACG | 1.03
73 | TCATTATATT | 1.05
74 | TCATTATCAA | 0.951
75 | TCATTGCCAA | 1.08

Row | Sequence | switch fluorescence ratio
76 | TCATTGGTTG | 0.993
77 | TCATTTGCA | 1.06
78 | TCATTTTAGG | 0.949
79 | TCATTTTAT | 0.941
80 | TCATTTTGTA | 1.02
81 | TCATTTTTAG | 1
82 | TCCAAAGTCT | 1.07
83 | TCCAAGCGTT | 1.22
84 | TCCAAGTTC | 0.985
85 | TCCAAGTTGT | 0.997
86 | TCCACATTCA | 1.02
87 | TCCACGGCGA | 2.84
88 | TCCACGGGCT | 0.981
89 | TCCACGGT | 1.07
90 | TCCACTAGGG | 1.15
91 | TCCACTTTTG | 1.01
92 | TCCAGATTCG | 0.952
93 | TCCAGCGCGC | 1.04
94 | TCCAGCGGAG | 1.01
95 | TCCAGGTAGG | 1.13
96 | TCCAGTTGG | 0.979
97 | TCCAGTTTGT | 0.999
98 | TCCATCGGCG | 1.02
99 | TCCATGAGAT | 0.942
100 | TCCATGTTCG | 0.92

Row | Sequence | switch fluorescence ratio
101 | TCCATTGGTT | 0.987
102 | TCCATTGTAT | 0.982
103 | TCCATTTGAA | 0.974
104 | TCCATTTTAG | 0.98
105 | TCCCAATATT | 1.45
106 | TCCCAATCGA | 1.28
107 | TCCCAGCTTG | 1.02
108 | TCCCATGAGG | 1.01
109 | TCCCCAACTT | 1.02
110 | TCCCCATGGG | 1.11
111 | TCCCCGAGGT | 1.02
112 | TCCCCGGCCT | 1.1
113 | TCCCGACATA | 1.1
114 | TCCCGTAGAA | 1.16
115 | TCCCTTAGCG | 1.04
116 | TCCCTTCCAG | 1.05
117 | TCCCTTCCTG | 1.67
118 | TCCCTTCTGC | 1.05
119 | TCCGAATATG | 1.2
120 | TCCGAATGGG | 1.05
121 | TCCGACAGAA | 2.26
122 | TCCGACCGGC | 2.04
123 | TCCGACCTGA | 1.95
124 | TCCGAGTAGA | 0.999
125 | TCCGATAATG | 1.08

Row | Sequence | switch fluorescence ratio
126 | TCCGCAGTTT | 3.29
127 | TCCGCCGGGT | 1.1
128 | TCCGCCTCG | 1.17
129 | TCCGCTCATA | 4.55
130 | TCCGGAACTT | 1.08
131 | TCCGGAAGCA | 1.03
132 | TCCGGGCCTG | 1.01
133 | TCCGGGTCGA | 1.03
134 | TCCGGTTGTG | 1.02
135 | TCCGTACTTT | 1.05
136 | TCCGTTATCT | 1.16
137 | TCCGTTCCAA | 1.07
138 | TCCTAAAATG | 1.03
139 | TCCTAAATCT | 1.08
140 | TCCTACGTCG | 1.62
141 | TCCTACTCCC | 1.85
142 | TCCTAGCATC | 4.19
143 | TCCTAGGGAC | 1.09
144 | TCCTATCTAA | 1.04
145 | TCCTATGACC | 0.991
146 | TCCTCGTTAG | 1.18
147 | TCCTGATGAC | 1.1
148 | TCCTGCGTGC | 2.62
149 | TCCTGGCAGC | 1.61
150 | TCCTGGCTTG | 0.994

Row | Sequence | switch fluorescence ratio
151 | TCCTGGGTAG | 1.02
152 | TCCTGGGTGA | 1
153 | TCCTTATTAT | 1
154 | TCCTTGGGG | 1.04
155 | TCCTTGTTCT | 0.992
156 | TCCTTTCCTT | 1.04
157 | TCCTTTCTCT | 1.18
158 | TCCTTTGGAA | 1.06
159 | TCGAAAGTCA | 1.04
160 | TCGAACAACC | 1.08
161 | TCGAAGGAGA | 1.02
162 | TCGAAGGTCC | 1.05
163 | TCGAAGTGGG | 0.992
164 | TCGAATATAT | 0.967
165 | TCGAATCGGG | 1.02
166 | TCGAATGTTG | 1
167 | TCGACATTGA | 1.02
168 | TCGACCAGC | 1.21
169 | TCGACGAGGA | 1.15
170 | TCGACGCCTT | 2.68
171 | TCGACGTCTG | 0.968
172 | TCGACTCGTG | 0.994
173 | TCGACTTTTT | 1.03
174 | TCGAGAATTG | 1
175 | TCGAGCGCAG | 1.25

Row | Sequence | switch fluorescence ratio
176 | TCGAGGGTGC | 0.947
177 | TCGAGGTCA | 1.03
178 | TCGAGTCGCG | 1.02
179 | TCGAGTCGTC | 1.04
180 | TCGAGTGCAT | 1.06
181 | TCGAGTGTTA | 0.946
182 | TCGATAAACA | 0.976
183 | TCGATACCTA | 1.05
184 | TCGATAGAGC | 0.998
185 | TCGATATTC | 1.04
186 | TCGATCGCCG | 0.946
187 | TCGATGGCGG | 0.978
188 | TCGATGGGCG | 0.999
189 | TCGATGGGTA | 0.998
190 | TCGATGTACA | 1.2
191 | TCGATGTGTG | 0.998
192 | TCGATTCAAG | 1
193 | TCGATTTCAG | 0.996
194 | TCGCACCGTG | 1.13
195 | TCGCACTCTC | 3.91
196 | TCGCAGAGTC | 1.29
197 | TCGCAGCTCG | 1.09
198 | TCGCATCGCT | 1.02
199 | TCGCCGACAC | 1.58
200 | TCGCCTCTTT | 1.01
